No constants are given. Whether binding was seen depends on the method and setting. For part of these data: Binding seen in cells or lysates may run through a third protein. Some binding calls cover weakened binding; strength is not graded here.
Experiments:
[1] = target: 53BP1 tandem Tudor domain (residues 1459-1634) (human) (UniProt Q12888); experiment: AUC; sedimentation velocity, 60,000 rpm, 20 °C, 10 mM Tris-HCl pH 8.0, 200 mM NaCl, 3 mM DTT; TIRR 53 μM, TTD 35 μM, mixture 20 μM TIRR with 20 μM TTD; both purified
[2] = target: NUDT16 (in-vitro pull-down assays) (UniProt Q96DE0); experiment: pull-down; in vitro pull-down screening of TIRR dimer-interface mutants, TIRR homodimer or TIRR/NUDT16 heterodimer (Supplementary Fig. 9a, e, f); who was held not shown; both purified
[3] = target: 53BP1 expressed in 293T cells (human) (UniProt Q12888); experiment: co-IP; TIRR or its mutants and 53BP1 expressed in 293T cells; lysis in NETN-300, streptavidin sepharose beads 2 h 4 °C, NETN-100 washes; western blot
NUDT16 (co-IP) = NUDT16 (co-IP) (UniProt Q96DE0); experiment: co-IP; TIRR with NUDT16 (Supplementary Fig. 8); cells and tags not shown

Protein sequences, listed by entry. Tags and fused reporters are not part of them. Lines headed by an entry give the natural chain unless they say otherwise; changes in a name come on top.
UniProt Q12888: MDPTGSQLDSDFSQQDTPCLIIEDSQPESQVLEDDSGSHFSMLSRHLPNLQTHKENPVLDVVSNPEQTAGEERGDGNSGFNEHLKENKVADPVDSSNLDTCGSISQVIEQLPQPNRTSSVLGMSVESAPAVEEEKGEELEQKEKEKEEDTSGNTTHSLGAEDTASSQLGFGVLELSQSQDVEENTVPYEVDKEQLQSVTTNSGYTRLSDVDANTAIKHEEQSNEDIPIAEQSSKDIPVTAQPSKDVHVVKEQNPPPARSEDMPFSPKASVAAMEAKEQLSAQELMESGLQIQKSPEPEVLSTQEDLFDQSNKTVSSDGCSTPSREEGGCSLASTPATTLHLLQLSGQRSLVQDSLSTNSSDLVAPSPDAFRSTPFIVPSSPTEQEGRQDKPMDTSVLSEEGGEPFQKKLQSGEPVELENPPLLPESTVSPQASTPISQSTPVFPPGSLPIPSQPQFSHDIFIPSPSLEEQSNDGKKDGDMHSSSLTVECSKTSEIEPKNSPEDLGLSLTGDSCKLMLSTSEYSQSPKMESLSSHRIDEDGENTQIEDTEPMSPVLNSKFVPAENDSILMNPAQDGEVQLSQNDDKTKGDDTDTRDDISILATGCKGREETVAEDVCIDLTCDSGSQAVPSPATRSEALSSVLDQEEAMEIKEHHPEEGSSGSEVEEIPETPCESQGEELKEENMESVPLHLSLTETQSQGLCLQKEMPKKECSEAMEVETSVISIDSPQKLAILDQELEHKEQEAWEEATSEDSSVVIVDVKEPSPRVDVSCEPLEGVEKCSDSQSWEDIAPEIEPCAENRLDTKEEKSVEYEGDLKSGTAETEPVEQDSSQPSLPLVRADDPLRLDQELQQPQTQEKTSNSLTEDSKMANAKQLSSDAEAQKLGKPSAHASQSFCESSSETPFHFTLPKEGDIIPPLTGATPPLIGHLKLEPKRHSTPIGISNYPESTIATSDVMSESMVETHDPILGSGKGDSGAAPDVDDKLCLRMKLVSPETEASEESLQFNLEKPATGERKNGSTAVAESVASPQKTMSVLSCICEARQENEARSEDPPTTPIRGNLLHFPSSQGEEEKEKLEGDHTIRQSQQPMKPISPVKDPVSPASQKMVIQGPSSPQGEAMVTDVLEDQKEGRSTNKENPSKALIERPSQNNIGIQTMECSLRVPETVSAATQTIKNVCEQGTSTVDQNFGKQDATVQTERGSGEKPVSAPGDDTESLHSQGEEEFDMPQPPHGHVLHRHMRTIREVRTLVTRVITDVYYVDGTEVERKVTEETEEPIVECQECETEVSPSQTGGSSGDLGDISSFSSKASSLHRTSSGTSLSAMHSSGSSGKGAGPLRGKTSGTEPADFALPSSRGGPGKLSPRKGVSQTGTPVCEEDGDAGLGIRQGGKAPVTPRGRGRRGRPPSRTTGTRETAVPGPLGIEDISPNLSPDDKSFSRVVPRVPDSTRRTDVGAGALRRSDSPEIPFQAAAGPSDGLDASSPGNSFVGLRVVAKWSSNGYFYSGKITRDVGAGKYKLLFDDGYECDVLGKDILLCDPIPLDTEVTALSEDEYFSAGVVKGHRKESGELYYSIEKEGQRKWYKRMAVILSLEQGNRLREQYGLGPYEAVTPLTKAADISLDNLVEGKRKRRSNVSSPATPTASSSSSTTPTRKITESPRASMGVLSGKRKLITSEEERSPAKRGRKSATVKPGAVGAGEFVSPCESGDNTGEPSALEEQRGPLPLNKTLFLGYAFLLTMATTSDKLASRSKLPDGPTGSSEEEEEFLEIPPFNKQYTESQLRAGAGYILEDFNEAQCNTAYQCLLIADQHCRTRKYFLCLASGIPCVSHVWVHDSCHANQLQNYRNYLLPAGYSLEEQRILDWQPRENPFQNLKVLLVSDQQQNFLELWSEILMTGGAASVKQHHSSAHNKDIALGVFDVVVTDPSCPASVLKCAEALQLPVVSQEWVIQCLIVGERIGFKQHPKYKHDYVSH
UniProt Q96DE0: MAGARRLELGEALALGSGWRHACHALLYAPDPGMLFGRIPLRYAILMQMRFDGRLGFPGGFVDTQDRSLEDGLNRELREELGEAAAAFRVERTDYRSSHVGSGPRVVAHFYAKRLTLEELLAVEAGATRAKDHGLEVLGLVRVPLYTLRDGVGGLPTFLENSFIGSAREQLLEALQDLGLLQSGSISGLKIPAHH
UniProt Q9BRJ7: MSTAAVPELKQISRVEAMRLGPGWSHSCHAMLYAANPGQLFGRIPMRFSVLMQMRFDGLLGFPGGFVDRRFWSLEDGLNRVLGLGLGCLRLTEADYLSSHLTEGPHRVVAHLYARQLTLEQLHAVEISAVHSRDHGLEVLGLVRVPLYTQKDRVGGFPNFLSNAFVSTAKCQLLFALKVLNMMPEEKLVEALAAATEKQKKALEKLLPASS

Substance	binding [3]	further results
53BP1 tandem Tudor domain (residues 1459-1634) (from UniProt Q12888 1459-1634) (domain or fragment)		binding [1]: no binding (tested: 35 μM)
His-TIRR (from UniProt Q9BRJ7 6-211) (domain or fragment)		binding [2]: binds
TIRR H106A expressed in 293T cells (from UniProt Q9BRJ7 1-211)	no binding	
TIRR R107A expressed in 293T cells (from UniProt Q9BRJ7 1-211)	no binding	
TIRR expressed in 293T cells (from UniProt Q9BRJ7 1-211)	binds	binding (NUDT16 (co-IP)): binds

Reference: paper PMC6043480
